These results are taken from PubChem BioAssay AID488969 (Vanderbilt High Throughput Screening Facility, 2010).

In all, about 110,000 compounds were measured (“z-score”: median about -0.1, highest 2% from about 2 on). The list shows a part of the results. Activity calls are given as the source filed them.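 How the source made its calls: active means z-score in the third read window above 3 or below -3; inactive means the rest.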

The target in this assay is Metabotropic glutamate receptor 8 (Rattus norvegicus) (UniProt P70579). As to the kind of experiment: mGluR8 Gi/Go-coupled signaling modulation – cell-based, rat, thallium flux, HTS, primary screen (AID 488969). Particulars: HEK293 rat mGluR8, GIRK (G protein-gated inwardly rectifying potassium channel) thallium flux, FluoZin2; at 10 µM; stronger effect = higher value; submaximal glutamate (EC20) added with thallium.
UniProt P70579, sequence (P70579 whole entry, looked up): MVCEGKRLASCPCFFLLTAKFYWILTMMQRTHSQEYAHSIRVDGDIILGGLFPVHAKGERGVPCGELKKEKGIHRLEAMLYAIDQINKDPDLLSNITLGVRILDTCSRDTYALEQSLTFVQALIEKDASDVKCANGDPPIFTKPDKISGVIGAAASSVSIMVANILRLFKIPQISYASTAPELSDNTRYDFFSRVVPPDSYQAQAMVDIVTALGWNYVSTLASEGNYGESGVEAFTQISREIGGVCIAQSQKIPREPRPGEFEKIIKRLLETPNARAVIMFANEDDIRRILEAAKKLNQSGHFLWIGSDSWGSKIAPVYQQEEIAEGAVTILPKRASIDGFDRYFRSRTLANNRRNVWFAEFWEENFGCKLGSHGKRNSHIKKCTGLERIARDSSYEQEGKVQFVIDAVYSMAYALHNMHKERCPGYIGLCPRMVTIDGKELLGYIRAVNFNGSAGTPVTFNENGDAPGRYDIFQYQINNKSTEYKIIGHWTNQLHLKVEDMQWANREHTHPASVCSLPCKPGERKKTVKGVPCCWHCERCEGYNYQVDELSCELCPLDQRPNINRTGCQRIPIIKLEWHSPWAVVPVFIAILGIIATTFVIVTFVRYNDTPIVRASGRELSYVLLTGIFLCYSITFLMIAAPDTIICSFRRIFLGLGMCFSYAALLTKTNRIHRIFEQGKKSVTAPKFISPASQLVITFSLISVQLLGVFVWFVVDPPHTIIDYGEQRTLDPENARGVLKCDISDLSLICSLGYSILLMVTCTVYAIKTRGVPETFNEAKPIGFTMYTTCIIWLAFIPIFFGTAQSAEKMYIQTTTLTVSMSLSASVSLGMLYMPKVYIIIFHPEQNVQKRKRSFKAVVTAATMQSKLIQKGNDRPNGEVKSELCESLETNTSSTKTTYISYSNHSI
`Cc1c(C(=O)O)oc2c3c(ccc12)OCCO3`: the z-score is -0.0103.

In the case of `CC(C)CNC(=O)NC(=O)COC(=O)c1cccc(NS(=O)(=O)c2ccc(F)c(F)c2)c1`, the z-score is -0.289.

As for `O=c1[nH]cnc2c1sc1nc3c(c(-c4ccc(Cl)cc4)c12)CCC3`, the z-score is -0.722.

For `CN(Cc1ccccc1)S(=O)(=O)c1ccc(S(=O)(=O)N(Cc2ccc(F)cc2)C2CCCC2)cc1`, the z-score was -0.232.

Molecule `CCOc1ccc(N2CC(C(=O)NCCN3C(=O)S/C(=C\c4ccc(OC)cc4)C3=O)CC2=O)cc1` (stereo unspecified) had a z-score of 0.109.

For the molecule `CC(=O)Nc1ccc2c(c1)N(C(=O)CN(C)C)c1ccccc1CC2`, the z-score was 0.0846.

Turning to `N#CC1=C(N)Oc2cc3c(cc2C1c1ccc(Cl)cc1)OCO3` (stereo unspecified), the z-score came out at 0.119.

In turn, `O=C(Cc1cccc2ccccc12)N/N=C/c1ccc(OC(=O)/C=C/c2ccco2)cc1` gave a z-score of -0.0231.

Regarding `CC1CCCCC1NC(=O)c1ccc(N2CCCC2=O)cc1` (stereo unspecified), the z-score stood at 0.0276.

With `CC(=O)c1c(C(C)=O)c(C)n(C2CCCCC2)c1C`, the z-score was determined as 0.23.

`CCS(=O)(=O)N1Cc2ccccc2CC1C(=O)OCC(=O)Nc1ccc(C)cc1` (stereo unspecified): the z-score was -0.847.

`COc1cccc(N2C(=O)C3CCCN3C2c2ccc(Cl)cc2)c1` (stereo unspecified) yielded a z-score of -0.0283.

`COc1ccc(C)cc1NC(=O)CN(C)S(=O)(=O)c1cnc[nH]1`: the z-score is 0.179.

Regarding `COc1ccc(N/C(N)=N/c2nc(CSc3ccc(Cl)cc3)cc(=O)[nH]2)cc1`, the z-score was -0.284.

For `COCC(=O)Nc1ccc(C(N)=O)cc1`, the z-score is -0.00575.

`O=C(N/N=C/c1cc(Br)c(Br)o1)C(O)c1ccccc1` (stereo unspecified) displayed a z-score of -0.119.

For `CC(=O)NS(=O)(=O)c1ccc(NC(=O)/C=C/c2ccccc2Cl)cc1`, the z-score is -0.0146.

Consider `Cc1nc(C)c(C(=O)C2=C(O)C(=O)N(CCCn3ccnc3)C2c2ccc(Cl)cc2)s1` (stereo unspecified), for which the z-score is 0.983.

In the case of `Clc1ccc(OCc2nc(-c3ccncc3)no2)c(Cl)c1`, the z-score was -0.0686.

Take `O=c1c2cnn(-c3ccccc3)c2nnn1/N=C/c1cccnc1`: the z-score was 0.0346.

With `O=C(CN(Cc1ccccc1)S(=O)(=O)c1ccc2c(c1)OCCO2)N/N=C/c1ccc(F)cc1`, the z-score amounted to 0.352.

Turning to `c1ccc(N2CCN(c3ncnc4sc5c(c34)CCC5)CC2)cc1`, the z-score was -0.0951.

The molecule `O=Cc1ccc(-c2ccccc2OC(F)(F)F)o1` returned a z-score of -0.317.

The molecule `O=C(Nc1ccc(N2CCOCC2)c(Cl)c1)c1cc2ccccc2o1` showed a z-score of -0.897.

`Cc1ccc(NC(=S)NN2CCN(C)CC2)cc1` registered a z-score of -2.12.

In turn, `CC(Sc1nnc(C(C)N(C)C)n1-c1ccc(Cl)cc1)C(=O)Nc1ccc2c(c1)OCO2` (stereo unspecified) returned a z-score of -0.446.

In turn, `COC(=O)c1cccnc1N1CCN(c2ccccc2F)CC1` showed a z-score of -0.0799.

With `Cc1c(C=O)c(C=O)c(C)n1Cc1ccccc1`, the z-score was -0.295.

For `O=C(NCCCn1ccnc1)c1ccc(Cl)c(S(=O)(=O)N2CCOCC2)c1`, the z-score was -0.619.

`O=C(Nc1nc(-c2ccc(S(=O)(=O)N3CCCC3)cc2)cs1)c1ccco1` yielded a z-score of -0.0484.

For the molecule `C/C(=N\OC(=O)c1ccc(Cl)c(Cl)c1)c1sc(C)nc1C`, the z-score was -0.197.

Molecule `O=C(Nc1cccc2ccccc12)C1CCN(C(=O)Cc2ccccc2)CC1` returned a z-score of -0.0484.

As for `Cc1cc(Nc2ccccc2)n(-c2cccc(Cl)c2)n1`, the z-score was -0.114.

In the case of `C=CCn1c(SCC(=O)NCc2ccco2)nc2sc(C)c(C)c2c1=O`, the z-score is -0.948.

`O=[N+]([O-])c1ncn(Cc2c(Cl)cccc2Cl)n1` returned a z-score of 0.0141.

Turning to `C=CCNc1nc(-c2ccc(O)c(C(N)=O)c2)cs1`, the z-score is -0.471.

`CCN(CC)CCCNC(=O)C1c2ccccc2Oc2ccccc21` had a z-score of 0.199.

Consider `S=C(c1ccc(-c2ccccc2Cl)o1)N1CCCCC1`, for which the z-score came out at 0.632.

With `Cc1nc2ccc(NC(=O)c3ccc(S(=O)(=O)N4CCOCC4)cc3)cc2s1`, the z-score was -0.182.

In turn, `COc1cc(C(=O)O/N=C(\N)c2ccncc2)cc(OC)c1OC` gave a z-score of -0.016.

Regarding `CC(=O)c1c(COC(=O)c2ccccc2)nc2ccccc2[n+]1[O-]`, the z-score was -0.211.

For the molecule `Cc1ccc(OCC(=O)NNC(=O)CCC(=O)NCc2ccccc2)cc1`, the z-score is -0.189.

The molecule `COc1ccccc1-c1nnc(SC2CCc3ccccc3NC2=O)s1` (stereo unspecified) displayed a z-score of 0.0734.

As for `Cc1ccc(-n2c(O)c(/C=C3/C(c4ccccc4)=Nc4ccccc43)c(=O)[nH]c2=O)cc1`, the z-score was -0.911.

`C/C(NC(=O)c1ccccc1F)=C1\C(=O)C[C@@H]2[C@H]1C2(C)C` came in with a z-score of -0.743.

`O=C(O)Cn1c(=O)cnc2ccccc21`: the z-score came out at 0.0695.

`Cc1onc(-c2ccccc2Cl)c1C(=O)Nc1nnc(-c2ccc(Br)cc2)s1` showed a z-score of 0.231.

`CCCCN1C(=O)CC(Nc2ccc(CC)cc2)C1=O` (stereo unspecified): the z-score is -0.437.

As for `Cc1[nH]nc2c1C(c1ccccc1)C1=C(CC(C)(C)CC1=O)N2` (stereo unspecified), the z-score is -1.05.

`COc1ccc(OCCCN2CCCC(C)C2)cc1` (stereo unspecified) displayed a z-score of 0.314.

`CCn1c2ccccc2c2cc(NC(=O)c3ccc([N+](=O)[O-])cc3)ccc21` returned a z-score of -0.215.

Consider `CC1CCCCC12NC(=O)N(CC(=O)NC(=O)Nc1ccc3c(c1)OCCO3)C2=O` (stereo unspecified), for which the z-score was -0.152.

As to `Cc1ccc2[nH]c3c(c2c1)CN(C(=O)CN1CCN(c2cccc(C)c2C)CC1)CC3`, the z-score was -0.0108.

In the case of `COc1cccc(OCCCOc2ccccc2C(C)C)c1`, the z-score was -0.176.

For the molecule `COC1(c2ccccc2)NC(=S)NN=C1c1ccccc1` (stereo unspecified), the z-score is 0.721.

`CCOc1ccc(OCC)c(NC(=O)CN(C)S(=O)(=O)c2cnc[nH]2)c1` registered a z-score of 1.24.

As for `CCN(C(=O)CSc1nnc(Cn2nnc3ccccc32)o1)c1nc(C)cs1`, the z-score came out at 0.00945.

The molecule `CCC(=O)N(CC(=O)Nc1sc(C)c(C)c1C(N)=O)C1CCCCC1` had a z-score of -0.174.

`CCc1ccc2c(c1)C(=O)c1ccccc1C2=O`: the z-score was -0.389.

As to `CCOC(=O)C1CCCN(C(=O)c2cc(-c3ccccc3)on2)C1` (stereo unspecified), the z-score is active: 3.22.

On to `CCNC(=S)NNC(=O)c1cccnc1`, for which the z-score is 0.0145.

`COc1ccc(OC)c2sc(NC(=O)CCSc3ccccc3)nc12` displayed a z-score of 0.564.

In the case of `CCC(=O)OC1(C#CCOc2ccc(OC)cc2)CCN(C)CC1`, the z-score is -0.0173.

In turn, `COc1ccc(/C=N\NC(=O)c2cc(OCC(F)(F)F)ccc2OCC(F)(F)F)cc1` displayed a z-score of 0.613.

For the molecule `O=C(NNC(=O)C1CC1c1ccccc1)c1cccc([N+](=O)[O-])c1` (stereo unspecified), the z-score is -0.0643.

As for `CCOCCCNC(=O)C1CC(=O)N(C2CCCC2)C1` (stereo unspecified), the z-score was 0.576.

In turn, `c1ccc2c(c1)ccc1nnc(-c3ccc4c(c3)OCO4)n12` had a z-score of -0.637.

The molecule `CCOC(=O)C(NCc1ccccc1OC)(NC(C)=O)C(F)(F)F` (stereo unspecified) displayed a z-score of 0.381.

For the molecule `O=C(Nc1cccc(Cl)c1)c1cc(S(=O)(=O)NCCc2ccc(Cl)cc2)ccc1F`, the z-score came out at 0.0486.

Turning to `CCNc1nc(=S)nc(NC(C)C)[nH]1`, the z-score is -0.203.

Regarding `Cn1c(=O)c(=O)n(C)c2cc(S(=O)(=O)N3CCC(Cc4ccccc4)CC3)ccc21`, the z-score is -0.15.

In turn, `CC(/C=N/NC(=S)Nc1cccc(S(=O)(=O)N(C)C)c1)c1ccccc1` (stereo unspecified) returned a z-score of 1.87.

In the case of `COc1ccc(C2C(C(=O)NCc3ccccc3)=C(C)Nc3ncnn32)cc1OC` (stereo unspecified), the z-score was -0.609.

On to `COC(=O)c1cn(N(C)c2ncc(C(F)(F)F)cc2Cl)c(=O)c2ccccc12`, for which the z-score was 0.228.

`COc1ccc(NC(=O)c2ccccc2NC(=O)C2CCCO2)cc1` (stereo unspecified) came in with a z-score of 0.019.

On to `CCOC(=O)c1cc(-c2ccccc2)sc1NC(=O)CSc1nnnn1C`, for which the z-score was -1.51.

In turn, `NC(=S)NNC(=O)Nc1cccc(Cl)c1` returned a z-score of 0.406.

Consider `CCN(CC)CCOC(=O)c1ccc(NC(=O)COc2cc(=O)n(CC)c3ccccc23)cc1`, for which the z-score was -0.657.

Molecule `CCOC(=O)c1ccc(-n2cncn2)nc1` had a z-score of -0.0806.

`O=C(CCC(=O)Nc1ccccc1Cl)N/N=C/c1ccccc1` gave a z-score of -0.0425.

Molecule `O=C(Cc1cccc2ccccc12)N/N=C/c1ccc(F)cc1` registered a z-score of -0.192.

Turning to `CSc1ccc(S(=O)(=O)NC2CCCCC2)cc1`, the z-score was -0.248.

`CCOC(=O)C1=C(N)OC(CCl)=C(C#N)C1c1ccsc1` (stereo unspecified): the z-score is -0.228.

Turning to `COc1ccccc1-c1cc(C(=O)NCc2ccc(F)cc2)no1`, the z-score was -0.214.

For the molecule `O=C(Nc1ccccc1)c1ccc(NC2CCCCC2)c(S(=O)(=O)N2CCOCC2)c1`, the z-score is -0.0587.

Turning to `Cc1ccccc1/C=C1\OC(=O)c2ccccc21`, the z-score was -0.0296.

`C/C(=N\OC(=O)c1ccc(Cl)cc1)c1sc(-c2ccccc2)nc1C` yielded a z-score of -1.01.

The molecule `NC(=O)C(c1ccc(Cl)cc1)c1ccc(Sc2ccc(Cl)cc2)nn1` (stereo unspecified) registered a z-score of 0.175.

The molecule `Fc1ccc(C(c2nnnn2CCc2ccccc2)N2CCCc3ccccc32)cc1` (stereo unspecified) yielded a z-score of -0.0894.

`O=C(NNC(=O)c1ccc(F)cc1)C(=O)N1CCCCC1` gave a z-score of -0.0259.

With `Cc1cccc(OCC(=O)Nc2ccccc2N2CCCCC2)c1`, the z-score was determined as 0.378.

Molecule `CCCCN1C(=O)c2ccc(C(=O)Nc3cccc(C)c3C)cc2C1=O` gave a z-score of 0.268.

The molecule `CCc1cccc(C)c1NC(=O)CSc1nc(-c2ccccc2F)nc2nc[nH]c12` had a z-score of 0.0867.

As for `CCN(N=Nc1cccc([N+](=O)[O-])c1)c1cccc([N+](=O)[O-])c1`, the z-score is -0.0769.

In the case of `CCn1c(=O)n(CC(=O)NC2CCCC(C)C2C)c(=O)c2ccccc21` (stereo unspecified), the z-score was determined as 0.522.

For the molecule `O=c1c2ccccc2ncn1CCOCCOc1cccc(Br)c1`, the z-score is -0.276.

`CCOc1cccc(-c2nnc(SCC(=O)Nc3cc(C)ccc3OC)n2N)c1` yielded a z-score of -0.599.

As to `Cc1nc(NCCO)c2nnn(Cc3ccccc3F)c2n1`, the z-score is -0.129.

Molecule `Cc1cc(C(F)(F)F)nc(SCC(=O)NC2=NC(=O)C(C)S2)n1` (stereo unspecified) showed a z-score of 0.475.

Molecule `N#Cc1nc(-c2cccs2)oc1NCCCN1CCOCC1` came in with a z-score of 0.112.

As for `CCOC(=O)C1CCCN(S(=O)(=O)c2c(C)c(C)cc(C)c2C)C1` (stereo unspecified), the z-score was -0.122.

Consider `COCCNS(=O)(=O)c1ccc(C2CNC(=O)C2)cc1` (stereo unspecified), for which the z-score is -0.229.

In the case of `COc1cc(-c2cc(C(=O)N3CCN(c4ccccn4)CC3)c3ccccc3n2)cc(OC)c1OC`, the z-score is active: -4.2.

The molecule `Nc1ccc(N2CCOCC2)c(Cl)c1` registered a z-score of -0.276.

`COc1ccc(NC(=O)Nc2ccc3nc(C)c(C)nc3c2)cc1` gave a z-score of 0.469.

In the case of `O=C(COC(=O)Cn1cnc2ccccc21)Nc1cccc2c1C(=O)c1ccccc1C2=O`, the z-score is -0.662.

`CN(C)c1oc(-c2ccc(OCc3ccccc3)cc2)nc1C#N`: the z-score is -1.

Turning to `Cc1ccccc1NC(=O)/C=C/c1cccc(C(F)(F)F)c1`, the z-score was -0.116.

Regarding `O=C(Oc1ccccc1)n1c(=S)oc2ccccc21`, the z-score is -0.751.

For `Cc1nn(Cc2cccc(C(=O)NC34CC5CC(CC(C5)C3)C4)c2)c(C)c1Br`, the z-score was 0.396.

On to `CCOC(=O)c1cc2c(=O)n3ccccc3nc2n(CCOC)c1=NC(=O)c1ccncc1`, for which the z-score was -0.0374.
